Source: publication PMC4242493
The list shows a part of the results. The list includes weakly bound sequences.

These sequences were tested against MaxL homodimer (UniProt P61244) (assay: universal protein-binding microarray (PBM)). Conditions: PBS-based mixture, 10 nM His-tagged protein dimer, 2% milk, 200 ng/uL BSA, 50 ng/uL salmon testes DNA, 0.02% TX-100; detection with Alexa 488 anti-His …; high values mean tight binding; most listed sequences are background and not binding sites; double strand, one strand shown.
UniProt P61244, sequence (P61244 whole entry): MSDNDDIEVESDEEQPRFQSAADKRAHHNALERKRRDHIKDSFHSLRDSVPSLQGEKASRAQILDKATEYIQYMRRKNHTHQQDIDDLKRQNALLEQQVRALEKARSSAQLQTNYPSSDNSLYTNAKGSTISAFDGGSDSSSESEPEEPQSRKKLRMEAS
Sequence TACGACAA has a binding signal (normalized occupancy) of 0.0706. CGACTAGA gave a binding signal (normalized occupancy) of 0.0749. ATCCTGGA was tested, and the binding signal (normalized occupancy) was 0.0757. AGCCGGCA was tested, and the binding signal (normalized occupancy) was 0.0634. Work on CTTTAGTA yielded a binding signal (normalized occupancy) of 0.073. In the case of CCGCATGA, the binding signal (normalized occupancy) is reported as 0.113. In the case of CCGCCAGC, the binding signal (normalized occupancy) is reported as 0.0729. In the case of CGACTGAA, the binding signal (normalized occupancy) is reported as 0.0682. For AACACGAT, the binding signal (normalized occupancy) was 0.0845. CAGTATAC was tested, and the binding signal (normalized occupancy) was 0.0771. With ATCACTTA the binding signal (normalized occupancy) was 0.08. For ACGAGCGC, the binding signal (normalized occupancy) was 0.0701. For CTTTACAC, the binding signal (normalized occupancy) was 0.0805. Sequence CAGAGCGA has a binding signal (normalized occupancy) of 0.0737. With CGGAGTAA the binding signal (normalized occupancy) was 0.071. With AATGTTCG the binding signal (normalized occupancy) was 0.0738. ACTCCTAA showed a binding signal (normalized occupancy) of 0.0732. Sequence CCATCCGG has a binding signal (normalized occupancy) of 0.076. With CCATTTGA the binding signal (normalized occupancy) was 0.0761. In the case of CCGCACAA, the binding signal (normalized occupancy) is reported as 0.0791. Sequence ACGCACTC has a binding signal (normalized occupancy) of 0.0766. ACGAGGTC showed a binding signal (normalized occupancy) of 0.0849. Work on AAGGCCCC yielded a binding signal (normalized occupancy) of 0.071. GATCGACA was tested, and the binding signal (normalized occupancy) was 0.0758. Work on GCGGGCAC yielded a binding signal (normalized occupancy) of 0.0758. GGCCATTA was tested, and the binding signal (normalized occupancy) was 0.0755. Work on CCGTTCTC yielded a binding signal (normalized occupancy) of 0.0814. Work on CACAAAAG yielded a binding signal (normalized occupancy) of 0.0701. ATAGACTC showed a binding signal (normalized occupancy) of 0.0787. In the case of ACCGAGAT, the binding signal (normalized occupancy) is reported as 0.0721. For CCGTCAGG, the binding signal (normalized occupancy) was 0.0679. For ACGTGCGA, the binding signal (normalized occupancy) was 0.093. GTAAACAA showed a binding signal (normalized occupancy) of 0.0774. GAGGAGGA was tested, and the binding signal (normalized occupancy) was 0.0761. AGAAACTC gave a binding signal (normalized occupancy) of 0.0708. For GTAGGCTA, the binding signal (normalized occupancy) was 0.0748. CGCACAGA gave a binding signal (normalized occupancy) of 0.0751. ATATATGG gave a binding signal (normalized occupancy) of 0.0895. With GCACGGCC the binding signal (normalized occupancy) was 0.0758. CCCCCTCA was tested, and the binding signal (normalized occupancy) was 0.0845. GAGCTATA gave a binding signal (normalized occupancy) of 0.0729. AGATAGTA showed a binding signal (normalized occupancy) of 0.0806. Sequence ATAGTGCC has a binding signal (normalized occupancy) of 0.0756. AAATAGGC gave a binding signal (normalized occupancy) of 0.076. GTATCACA showed a binding signal (normalized occupancy) of 0.0821. AGGCAGAT gave a binding signal (normalized occupancy) of 0.0775. CACAGCCC showed a binding signal (normalized occupancy) of 0.0731. Work on TGTCCGAA yielded a binding signal (normalized occupancy) of 0.0691. Work on CAATTAAA yielded a binding signal (normalized occupancy) of 0.0744. With TACGTCCA the binding signal (normalized occupancy) was 0.0733. CCTATTCA was tested, and the binding signal (normalized occupancy) was 0.0792. ATTTTAAA gave a binding signal (normalized occupancy) of 0.0743. With AAGCTTAC the binding signal (normalized occupancy) was 0.0706. Sequence AGCGGTTG has a binding signal (normalized occupancy) of 0.072. With AAGGGACG the binding signal (normalized occupancy) was 0.0723. AAATAAGA was tested, and the binding signal (normalized occupancy) was 0.0759. In the case of AATGTTAG, the binding signal (normalized occupancy) is reported as 0.0805. TCCCCAAA was tested, and the binding signal (normalized occupancy) was 0.0787. CGCTCCAC was tested, and the binding signal (normalized occupancy) was 0.0821. Sequence GTGATAAC has a binding signal (normalized occupancy) of 0.0841. CACACTGC showed a binding signal (normalized occupancy) of 0.0826. CAGGGGGA showed a binding signal (normalized occupancy) of 0.0851. With AATTATCG the binding signal (normalized occupancy) was 0.0772. TAACTCAA showed a binding signal (normalized occupancy) of 0.0715. Sequence TACTGAAA has a binding signal (normalized occupancy) of 0.0813. CGAATTGC was tested, and the binding signal (normalized occupancy) was 0.0728. CTGAGTAC gave a binding signal (normalized occupancy) of 0.0687. Work on ATTTCAAC yielded a binding signal (normalized occupancy) of 0.0786. CGGGATCC gave a binding signal (normalized occupancy) of 0.0764. With ACTTGATC the binding signal (normalized occupancy) was 0.0788. Sequence AGGTTTTG has a binding signal (normalized occupancy) of 0.065. AGCTATGC showed a binding signal (normalized occupancy) of 0.0688. With AGGACGGA the binding signal (normalized occupancy) was 0.0714. GATAATGA showed a binding signal (normalized occupancy) of 0.0767. With CAACCCGA the binding signal (normalized occupancy) was 0.0678. In the case of CTTTGTAA, the binding signal (normalized occupancy) is reported as 0.0738. With AGCATGCG the binding signal (normalized occupancy) was 0.124. For ACGTGGGC, the binding signal (normalized occupancy) was 0.1. ACAAACCA showed a binding signal (normalized occupancy) of 0.0736. Sequence ATAATAGA has a binding signal (normalized occupancy) of 0.0841. In the case of CAGCGTAC, the binding signal (normalized occupancy) is reported as 0.0708. AAGGGATA gave a binding signal (normalized occupancy) of 0.0787. Work on CTTTCGCA yielded a binding signal (normalized occupancy) of 0.0746. With CCAACTGA the binding signal (normalized occupancy) was 0.076. With CCCGGGGC the binding signal (normalized occupancy) was 0.0676. With ACGTCGAC the binding signal (normalized occupancy) was 0.0714. ACGGCATG showed a binding signal (normalized occupancy) of 0.103. GCCGGCAA showed a binding signal (normalized occupancy) of 0.0693. GATCATCA showed a binding signal (normalized occupancy) of 0.0795. Sequence AGTTGTCA has a binding signal (normalized occupancy) of 0.0738. Work on AATATAGA yielded a binding signal (normalized occupancy) of 0.0859. CCTATAGA gave a binding signal (normalized occupancy) of 0.0848. For CATAAGAA, the binding signal (normalized occupancy) was 0.085. Work on ACGCGAAT yielded a binding signal (normalized occupancy) of 0.0863. Work on CAGTACCA yielded a binding signal (normalized occupancy) of 0.0759. AAACAATG gave a binding signal (normalized occupancy) of 0.0821. For ACAGAAAT, the binding signal (normalized occupancy) was 0.0761. Work on GTTTTGAA yielded a binding signal (normalized occupancy) of 0.0702. GAAGCAGC showed a binding signal (normalized occupancy) of 0.0689. ACATGACC showed a binding signal (normalized occupancy) of 0.0952. Work on AATCTATG yielded a binding signal (normalized occupancy) of 0.0822. GAGTCCAA showed a binding signal (normalized occupancy) of 0.0715. Work on CCTAATAA yielded a binding signal (normalized occupancy) of 0.0761. TATGTTCA gave a binding signal (normalized occupancy) of 0.0769. In the case of CTGGCATA, the binding signal (normalized occupancy) is reported as 0.075. AGTGGAGA showed a binding signal (normalized occupancy) of 0.0775. Sequence CCACGGGA has a binding signal (normalized occupancy) of 0.0794. GCTATCCC was tested, and the binding signal (normalized occupancy) was 0.079. AAGCCCGG was tested, and the binding signal (normalized occupancy) was 0.064. For AAGAGCAC, the binding signal (normalized occupancy) was 0.0774. Sequence ATACCCCC has a binding signal (normalized occupancy) of 0.0919. Sequence CGCCCTGC has a binding signal (normalized occupancy) of 0.0699. AGTAAACC gave a binding signal (normalized occupancy) of 0.0715. CCTTTCGA gave a binding signal (normalized occupancy) of 0.0683. Work on AGGATGTC yielded a binding signal (normalized occupancy) of 0.0814. GGTGTTAC showed a binding signal (normalized occupancy) of 0.0741. CCATCCTA was tested, and the binding signal (normalized occupancy) was 0.0827. CCGGAGCG was tested, and the binding signal (normalized occupancy) was 0.0667. For GTAAGTTA, the binding signal (normalized occupancy) was 0.0731. ACCCACGG showed a binding signal (normalized occupancy) of 0.0796. ATCGCGGG gave a binding signal (normalized occupancy) of 0.0725. CCAATAGC was tested, and the binding signal (normalized occupancy) was 0.0726. GCAACGAC showed a binding signal (normalized occupancy) of 0.0721. In the case of ACCAACTG, the binding signal (normalized occupancy) is reported as 0.0711. TCTGGCCA gave a binding signal (normalized occupancy) of 0.0756. Sequence CATCGTCG has a binding signal (normalized occupancy) of 0.0723. GCCCGTAA showed a binding signal (normalized occupancy) of 0.0707. With CAAGTTGG the binding signal (normalized occupancy) was 0.0737. GTGGGTTA was tested, and the binding signal (normalized occupancy) was 0.0825. For AATCCAGA, the binding signal (normalized occupancy) was 0.0746. ATGCTTAG gave a binding signal (normalized occupancy) of 0.0869. CTGCGTAA showed a binding signal (normalized occupancy) of 0.0747. Work on AAAACAAT yielded a binding signal (normalized occupancy) of 0.0769. Sequence GCTGCATA has a binding signal (normalized occupancy) of 0.0772. For GTTACCTA, the binding signal (normalized occupancy) was 0.0825. GAAGCAGA showed a binding signal (normalized occupancy) of 0.0767. For TACCCGGA, the binding signal (normalized occupancy) was 0.0705. Sequence CTAACTAC has a binding signal (normalized occupancy) of 0.077. ACTGGTAG showed a binding signal (normalized occupancy) of 0.0742. In the case of AGCCTGAG, the binding signal (normalized occupancy) is reported as 0.066. TAAATCCA showed a binding signal (normalized occupancy) of 0.0745. In the case of ATCAGCAA, the binding signal (normalized occupancy) is reported as 0.0728. Sequence ACTGTGAT has a binding signal (normalized occupancy) of 0.0734. AGACGCAT gave a binding signal (normalized occupancy) of 0.0847. For ACACATCT, the binding signal (normalized occupancy) was 0.0851. GGAGAATA showed a binding signal (normalized occupancy) of 0.0811. Sequence ATATCGTA has a binding signal (normalized occupancy) of 0.0842. AATAAGAC gave a binding signal (normalized occupancy) of 0.0768. Sequence ACGATAGC has a binding signal (normalized occupancy) of 0.0748. Sequence GCTAATCA has a binding signal (normalized occupancy) of 0.0777. Sequence TATTTTCA has a binding signal (normalized occupancy) of 0.0746. ATGTGCGG showed a binding signal (normalized occupancy) of 0.104. CCATAACC gave a binding signal (normalized occupancy) of 0.0807. GTAGTGAA was tested, and the binding signal (normalized occupancy) was 0.082. ACTGATCA showed a binding signal (normalized occupancy) of 0.0812. Sequence AATACGAC has a binding signal (normalized occupancy) of 0.076. Work on AACGCCGT yielded a binding signal (normalized occupancy) of 0.0694. Work on AGAATGAG yielded a binding signal (normalized occupancy) of 0.0802. ACAGTGTG gave a binding signal (normalized occupancy) of 0.0848. GCAATTAC was tested, and the binding signal (normalized occupancy) was 0.0727. Work on AAACTTTC yielded a binding signal (normalized occupancy) of 0.0713. ACACATAA gave a binding signal (normalized occupancy) of 0.082. Sequence CATCATGC has a binding signal (normalized occupancy) of 0.0995. With GACGATGA the binding signal (normalized occupancy) was 0.0766. CCTTAGGA was tested, and the binding signal (normalized occupancy) was 0.0723. CACCCGAA showed a binding signal (normalized occupancy) of 0.0761. With GCGGGGAC the binding signal (normalized occupancy) was 0.0716. CGTGAGCC was tested, and the binding signal (normalized occupancy) was 0.0922. In the case of AATCGAGG, the binding signal (normalized occupancy) is reported as 0.0718. Sequence AAGTTTCT has a binding signal (normalized occupancy) of 0.0797. Work on AGCCGTGA yielded a binding signal (normalized occupancy) of 0.0713. For AGTTCGTC, the binding signal (normalized occupancy) was 0.069.
